In PubChem BioAssay AID651820 (National Center for Advancing Translational Sciences (NCATS), 2012):
The whole screen tested about 340,000 compounds, of which about 12,000 (3.5%) were called active. Inconclusive results, whose numbers are uncertain, are shown with a selection of clear calls. The call rests on the fitted dose curve; in most records, active means well fitted inhibition curve with a large enough effect; inconclusive means small, poorly fitted or top-dose-only effect, or another doubt; inactive means no such curve, though single readings can be large or run the other way. Potencies of inconclusive entries are left out as doubtful fits. The source holds several records for some structures; these can differ, active in one and inactive in another.

Test: qHTS Assay for Inhibitors of Hepatitis C Virus (HCV)
Conditions: Huh7.5.1 HCVcc-Cre (HCVcc is cell-culture hepatitis C virus) infection, luciferase reporter, 44 h; activity change, negative = inhibition: at 41.8 µM (top of the series) unless noted
Summary of the method: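 Whole-lifecycle infectious HCVcc-Cre system; cells 1,000/well, compound then virus (~0.5 moi) added 4 h after plating, 44 h culture. Luciferase read 15 sec following 15 min substrate incubation, room temp.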
On the % scale 0 is the no-effect control and ±100 the full control effect; potency means the concentration at half of the fitted maximal effect; tags describe the fitted curve by direction and shape.

| Structure (SMILES) | Potency | activity change, negative = inhibition |
| --- | --- | --- |
| Cc1cccc2nc(CSc3nc4ccccc4[nH]3)cn12 | inactive | – |
| OC1(c2ccc(OC(F)F)cc2)CSC(=Nc2cccnc2)N1Cc1ccco1 (stereo unspecified) | active: 11.2 µM | – |
| CCSc1nc2ccccc2c(=O)n1CCc1ccc(OC)c(OC)c1 | inconclusive [inhibitor, partial curve] | – |
| CCCCn1c(N)c(N(CC)C(=O)c2ccccc2F)c(=O)[nH]c1=O | inactive | – |
| COC(=O)c1ccc(NC(=O)CSc2nnc(C(C)NC(=O)c3ccccc3Cl)n2C)cc1 (stereo unspecified) | inconclusive [inhibitor, full curve, poor fit] | – |
| CC(=O)c1ccc2c(c1)N(C)c1ccccc1S2 | inconclusive [inhibitor, single point] | – |
| N#CC1(NC(=O)COC(=O)c2ccc(-c3ccc(O)cc3)cc2)CCCCC1 | inconclusive [inhibitor, single point] | – |
| COc1cc(/C=C(\C#N)C(=O)NCC2CCCO2)ccc1OC(C)C (stereo unspecified) | inactive | – |
| COC(=O)c1ccc2nc(NC(=O)C(C)C)sc2c1 | inactive | – |
| O=C(/C=C/Nc1ccc([N+](=O)[O-])cc1)c1ccc(Br)cc1 | inconclusive [inhibitor, single point] | – |
| CCOC(=O)CCC(=O)O[C@H]1[C@H](O[C@@H]2[C@@H](C)[C@H](O[C@H]3C[C@@](C)(OC)[C@@H](O)[C@H](C)O3)[C@@H](C)C(=O)O[C@H](CC)[C@@](C)(O)[C@H](O)[C@@H](C)C(=O)[C@H](C)C[C@@]2(C)O)O[C@H](C)C[C@@H]1N(C)C | inconclusive [inhibitor, single point] | inactive: -3.14% [at 8.37 µM] |
| Clc1ccc(SCCCCN2CCNCC2)cc1 | inconclusive [inhibitor, partial curve] | – |
| Cc1cccc(CNc2ccc(C(CC(N)=O)NC(=O)c3ccccc3)cc2[N+](=O)[O-])c1 (stereo unspecified) | inconclusive [inhibitor, single point] | – |
| Nc1nnc(SCC(=O)Nc2cc(C(F)(F)F)ccc2N2CCOCC2)s1 | inconclusive [inhibitor, full curve, poor fit] | – |
| N#Cc1ccccc1Cn1cc(C(=O)C2CC2)c2ccccc21 | inconclusive [inhibitor, full curve, poor fit] | – |
| O=C(CN1C(=O)C2CCCCC2C1=O)Nc1cccc(C(F)(F)F)c1 (stereo unspecified) | inactive | – |
| Cc1ccc2nc(-c3ccncc3)c(NC3CCCC3)n2c1 | inconclusive [inhibitor, partial curve] | – |
| O=C(c1cc(-c2ccc(Cl)c(Cl)c2)on1)N1CCOCC1 | inconclusive [inhibitor, single point] | – |
| CCc1cc(C(=O)OC)c(NC(=O)CSc2nccn2C)s1 | active: 10 µM | – |
| COC(=O)c1ccc(C(=O)OC)c(NC(=O)CCc2ccc(C)o2)c1 | inconclusive [inhibitor, partial curve] | – |
| Cn1ncc2c(Nc3ccc(Cl)c(Cl)c3)ncnc21 | inconclusive [inhibitor, single point] | – |
| Cc1oc(-c2ccc(Cl)cc2)nc1CS(=O)CC(=O)NCCCN1CCCC(C)C1 (stereo unspecified) | inconclusive [inhibitor, single point] | – |
| CCCC(C)C(=O)Nc1ccc(Cl)cc1Cl (stereo unspecified) | inactive | – |

| Structure (SMILES) | Potency | activity change, negative = inhibition |
| --- | --- | --- |
| COc1ccc(-c2nc(-c3ccccc3)c(-c3cc([N+](=O)[O-])ccc3C)[nH]2)cc1OC | active: 15.8 µM | – |
| COc1ccccc1NC(=O)N(Cc1cc2cc(OC)c(OC)cc2[nH]c1=O)CC1CCCO1 (stereo unspecified) | inactive | – |
| O=C(Nc1nnc(Cc2ccccc2)s1)c1ccco1 | inactive | – |
| CSc1nc2c(C)c(C)c(C)c(C)c2[nH]1 | inconclusive [inhibitor, single point] | – |
| CCCOP(=O)(OCCC)C(NC(=O)c1ccccc1)=C(Cl)Cl | inconclusive [inhibitor, single point] | – |
| CC(C)(C)n1cnc2cc(NS(=O)(=O)c3ccccc3)ccc21 | inactive | – |
| O=C(COc1ccc2c(c1)C(=O)CC1(CCCCC1)O2)NCc1ccccc1 | inconclusive [inhibitor, single point] | – |
| CC(=O)c1ccc(NS(=O)(=O)c2cccc(C(=O)Nc3ccccc3C(=O)O)c2)cc1 | inactive | – |
| COc1ccccc1CNC(=O)c1n[nH]c2ccccc12 | inactive | – |
| CCC(C(=O)Nc1nccs1)c1ccccc1 (stereo unspecified) | inactive | – |
| O=C1CCN(Cc2ccc(Br)cc2)CCN1[C@H](CO)c1ccccc1 | inconclusive [inhibitor, single point] | – |
| Cc1ccc(-c2nc(P(=O)(c3ccccc3)c3ccccc3)c(N3CCOCC3)o2)cc1 | inconclusive [inhibitor, single point] | – |
| NS(=O)(=O)c1ccc(CCn2c(=S)[nH]c3ccc(F)cc3c2=O)cc1 | inconclusive [inhibitor, single point] | – |
| CC(=O)c1sc(NC(=O)c2ccc(Br)o2)nc1C | inactive | – |
| C[C@]12C=CC(=O)C=C1CC[C@@H]1[C@@H]2C(=O)C[C@@]2(C)[C@H]1CC[C@]2(O)C(=O)CO | active: 2.82 µM | – |
| O=C(NC(=S)Nc1cc(Cl)ccc1O)c1cccc(Br)c1 | active: 11.2 µM | – |
| Nc1cc(=O)[nH]c(SCc2cccc(Cl)c2)n1 | inconclusive [inhibitor, partial curve] | – |
| CCn1c2ccccc2c2cc(NC(=O)CCCN3C(=O)CCC3=O)ccc21 | active: 3.55 µM | – |
| COc1ccc(NC(=O)CSc2nc3ccccc3c(=O)n2C)cc1 | inconclusive [inhibitor, single point] | – |
| CCCCNc1c(-c2ccc(OC)c(Sc3ccc(OC)cc3)c2)nc2ccccn12 | active: 10 µM | – |
| CC(=O)OC1CC(c2cc(C(C)(C)C)c(O)c(C(C)(C)C)c2)=NO1 (stereo unspecified) | inconclusive [inhibitor, full curve] | – |
| COc1cc(/C=C(\C#N)c2nc3ccccc3[nH]2)cc(Br)c1OCc1ccc(F)cc1 | inconclusive [inhibitor, partial curve] | – |
